# From PubChem BioAssay AID1347073 (National Center for Advancing Translational Sciences (NCATS), 2019)
# Among all 45,000 compounds or so, about 200 (0.44%) were called active. Inconclusive results (about 7%) are left out. Calls come from the whole dose curve; as a rule, active = well fitted activation curve with a large enough effect; inconclusive = small, poorly fitted or top-dose-only effect; inactive = no such curve, though single readings can be large or run the other way. Some of the results follow.
# Assay: qHTS of TDP-43 Inhibitors: NCGC Sytravon Library Screen; note: 0% is about no effect; nearly all actives have a fitted effect of over 55% in size
# Settings: yeast TDP-43 toxicity rescue, BacTiter-Glo growth, 24 h; series mostly up to 46.1 µM; growth rescue (activation): at the top concentration
# Method in brief: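 TDP-43-expressing yeast, pregrown in raffinose, seeded at OD600 0.02 in galactose medium with compound for 24 hr at 30 deg C. Growth read by BacTiter-Glo luminescence, so rescue of toxicity appears as activation.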
row,SMILES,growth rescue (activation)
1,CC(=O)Nc1ccc(NC(=O)Cc2ccc(S(=O)(=O)N3CCCCC3)s2)cc1,inactive: -22.9%
2,O=C(c1ccc2c(c1)OCO2)N1CCN(S(=O)(=O)N2CCCCC2)CC1,inactive: 20%
3,CCc1nc2ccc(C(=O)N(C)CCCN(C)C)cn2c1N(C)Cc1cc2ccccc2s1,inactive: 8.62%
4,Cc1noc(C)c1C(=O)OC(C)C(=O)Nc1ccc(S(=O)(=O)NC(C)C)cc1 (stereo not given),inactive: 1.57%
5,CC(C)=C(C)c1cc2nc(NCCCN(C)C)n(C)c(=O)c2s1,inactive: 6.55%
6,COc1ccc(NC(=O)c2cc(-c3ccc(C)cc3)on2)cc1,inactive: 7.77%
7,CN(Cc1cccc2ncccc12)C(=O)CC1C(=O)NCCN1Cc1ccc(F)cc1 (stereo not given),inactive: 4.99%
8,COc1ccccc1OCc1ccc(C(=O)NC2CCCCC2)o1,inactive: 20%
9,O=C(CCC1CCCN(C(=O)c2ccc3[nH]ccc3c2)C1)N1CCN(c2ccccn2)CC1 (stereo not given),inactive: -1.83%
10,Cc1ccc(C(=O)N/C(=C\c2ccc(-c3ccccc3[N+](=O)[O-])o2)C(=O)NCCCN(C)C)cc1,inactive: 0.652%
11,COc1ccc(N(C(=O)CNC(=O)c2ccco2)C(C(=O)NC2CCCC2)c2ccncc2)cc1 (stereo not given),inactive: -7%
12,COCCNC(=O)C1(C)CCN(C(=O)/C=C/c2ccccc2)C1 (stereo not given),inactive: -4.65%
13,O=C(Nc1cccc(Cl)c1)Nc1cc(S(=O)(=O)N2CCOCC2)ccc1N1CCCC1,inactive: -8.82%
14,COc1nccnc1NS(=O)(=O)c1ccc(NCc2ccccc2O)cc1,inactive: 9.17%
15,CCC(C)(C)NC(=O)C(c1ccccc1Cl)N(C(=O)CCC(=O)Nc1cc(C)on1)c1ccc(NC(C)=O)cc1 (stereo not given),inactive: 0.514%
16,Cc1cccnc1CN1CCN(C(=O)CCc2nnc(CCc3ccccc3)o2)CC1,inactive: -6.08%
17,O=C(NCc1ccc(F)cc1)c1cc(C2CCCCN2C(=O)c2ccccc2)on1 (stereo not given),inactive: 25.4%
18,CCOC(=O)c1[nH]c(CN2CCN(c3ccc(OC)cc3)CC2)c(C(=O)OCC)c1C,inactive: 8.9%
19,O=C(NCc1ccccn1)C(=O)Nc1cccc2ccccc12,inactive: 27.5%
20,CC(C)(C)c1ccc(Oc2ccc(NC(=O)C3CC=CCC3C(=O)O)cc2)cc1 (stereo not given),inactive: 23.1%
21,COc1cccc(NC(=O)NNC(=O)CN2C(=O)COc3ccccc32)c1,inactive: 3.03%
22,CN(C)C(=O)c1cccc(-c2cnc3c(NC=O)cc(-c4ccc(C(=O)N5CCOCC5)cc4)cn23)c1,inactive: -6.62%

row,SMILES,growth rescue (activation)
1,O=S(=O)(c1ccc(=S)[nH]c1)N1CCCC1,inactive: 11.3%
2,CC(CN(C)Cc1ccccc1)OC(=O)c1ccccc1F (stereo not given),inactive: 16.9%
3,O=C(NC1CC2CCC1C2)c1ccco1 (stereo not given),inactive: -36.9%
4,O=[N+]([O-])c1ccc2nc(NS(=O)(=O)c3ccccc3[N+](=O)[O-])sc2c1,inactive: 10.3%
5,CCCNC(=O)C1(C)CCCN(Cc2c(C)nn(-c3ccccc3)c2C)C1 (stereo not given),inactive: 8.23%
6,O=C(Nc1cccc2ccccc12)c1ccc2sc([C@H]3C[C@H](O)[C@@H](CO)O3)nc2c1,inactive: -0.192%
7,CCOCCCNc1ncc2c(n1)CC(c1ccc(C)cc1)CC2=O (stereo not given),inactive: -12%
8,Cc1ccc(NC(=O)COC(=O)C(NS(=O)(=O)c2ccc(Cl)cc2)C(C)O)cc1C (stereo not given),inactive: -5.54%
9,CC(=O)Nc1ccc(NC(=O)c2ccc(-c3ccccc3Cl)o2)cc1,inactive: 34.1%
10,OCCC1CN(Cc2c(O)ccc3ccccc23)CCN1CCc1ccccc1 (stereo not given),inactive: -3.06%
11,CC(C)(C)NC(=O)C(c1ccc(O)cc1)N(Cc1ccco1)C(=O)CCC(=O)Nc1ccccn1 (stereo not given),inactive: -11.7%
12,O=C(Nc1ccc(N2C(=O)C3C4C=CC(C4)C3C2=O)cc1Cl)c1cccs1 (stereo not given),inactive: 5.69%
13,CC(=O)C(Cc1ccc(Cl)nc1)Cc1ccc(Cl)nc1,inactive: 7.2%
14,COc1ccc(NC(=O)c2cccc(-n3c(C)ccc3C)c2)c(OC)c1,inactive: 7%
15,CC(=O)c1ccc(NC(=S)NC(=O)/C=C/c2ccc(F)cc2)cc1,inactive: 6.28%
16,OCCN1CCN(Cc2nc(-c3cccc(Cl)c3)no2)CC1,inactive: -9.2%
17,CCOc1ccc(S(=O)(=O)N2CCCC(C(=O)NC3CC3)C2)cc1Cl (stereo not given),inactive: -6.26%
18,CCC(C)NC(=O)Cn1c(=O)n(CCCCCC(=O)NCc2ccccc2Cl)c(=O)c2sccc21 (stereo not given),inactive: -3.97%
19,COc1ccc(S(=O)(=O)Nc2cccnc2)c(C)c1C,inactive: 17.4%
20,CCOc1ccc(C(=O)Nc2ccc(S(=O)(=O)Nc3nccc(C)n3)cc2)cc1OCC,inactive: -10.2%
21,Cn1c(NCc2ccc3occc3c2)nc2cc(-c3cccc(C(F)(F)F)c3)sc2c1=O,inactive: 23.1%
22,CC1(C(=O)NS(=O)(=O)c2ccc(Cl)s2)CCN1C(=O)Cc1cc(F)ccc1F (stereo not given),inactive: -2.32%

row,SMILES,growth rescue (activation)
1,O=C(NNC(=O)c1cccs1)Nc1cccc(Cl)c1,inactive: 16.3%
2,Cc1nc2cc(NC(=O)NCc3ccccc3)ccc2o1,inactive: 28.9%
3,Cc1cc(C(C)(C)C)cc(S(=O)(=O)NCCO)c1C,inactive: 27.4%
4,O=C(CSc1nncc2ccccc12)Nc1ccc(F)cc1,inactive: 7%
5,Cc1ccc(-c2nn(-c3ccccc3)cc2/C=C2\SC(=S)N(CCCCCC(=O)O)C2=O)o1,inactive: 4.62%
6,CCc1nc2c(OCc3cc(Cl)cc(Cl)c3)cccn2c1N(C)C(=O)c1cccc(OC)c1,inactive: 13.2%
7,COCCNC(=S)Nc1ccccc1[N+](=O)[O-],inactive: 0.778%
8,CCCN(CCC)CCCNC(=O)c1cc2c(-c3ccc(OC)c(OC)c3)nn(C)c2s1,inactive: 6.67%
9,Cc1cccc(Nc2nnc(SCC(=O)NC3CCCc4ccccc43)s2)c1C (stereo not given),inactive: 19.5%
10,COc1ccc(-c2cc(C(=O)OC(C)C(=O)Nc3c(C)n(C)n(-c4ccccc4)c3=O)c3ccccc3n2)cc1 (stereo not given),inactive: 22.1%
11,Cc1sc(NC(=O)CSc2nc(O)cc(=O)[nH]2)nc1-c1ccccc1,inactive: 5.55%
12,COc1ccc(S(=O)(=O)N(C)CC(=O)N2CCCC2)cc1Cl,inactive: 6.29%
13,COC(CNC(=O)c1cc(-c2ccncc2)nc2ccc(S(=O)(=O)N3CCOCC3)cc12)OC,inactive: -5.31%
14,CCCOc1ccc(S(=O)(=O)N2CCN(C)CC2)c2ccccc12,inactive: -9.96%
15,CNc1snc(C)c1C(=O)OCC(=O)NCc1ccccc1OC,inactive: 10.4%
16,COCCNC(=O)CCCn1c(=O)c2cc(OC)c(OC)cc2n(CC(=O)c2ccccc2)c1=O,inactive: -3.3%
17,CCCOc1cc(C)nc(-c2ccccc2O)n1,inactive: 11%
18,COCCNC(=O)C(c1ccco1)N(Cc1ccc(OC)cc1)C(=O)Cn1nnc2ccccc21 (stereo not given),inactive: 0.72%
19,COc1ccc(N2CCN(CCC3Oc4cc([N+](=O)[O-])ccc4NC3=O)CC2)cc1 (stereo not given),inactive: 2.37%
20,CCCCCOc1ccc(C(=O)CCC(=O)N2CCCC2)cc1,inactive: 3.68%
21,CCOc1ccc(C(=O)NCC(=O)N2CCN(Cc3ccccc3)CC2)cc1,inactive: 4.5%
